Results from ChEMBL document CHEMBL1201862, “PubChem BioAssay data set” (2004).

Each compound was assayed on NCI-H322M (assay: growth of human tumour cells (NCI), 48 h).
`Sc1nc2c(c(-c3nc(S)nc4c3CCCCCCCCCC4)n1)CCCCCCCCCC2` was tested, and the GI50 was inactive: > 100 µM. `CCC12CCCN3CCc4c(n(c5ccccc45)C(O)(C(=O)OC)C1)C32` (stereo not given) was tested, and the GI50 was inactive: > 100 µM. `CC(CO)(Nc1ccc([N+](=O)[O-])cc1[N+](=O)[O-])C(=O)O` (stereo not given) was tested, and the GI50 was inactive: > 100 µM. In the case of `CC(=O)Nc1ccccc1Sc1ccccc1`, the GI50 is reported as inactive: > 100 µM. `COc1nc2ncc([C@@H](OC(C)=O)[C@@H](COC(C)=O)OC(C)=O)nc2c(=O)[nH]1` was tested, and the GI50 was inactive: > 100 µM. For `CN(C)c1cccc(-c2cc(=S)c3cc4c(cc3[nH]2)OCO4)c1`, the GI50 was inactive: 6.34 µM. In the case of `O=C(COc1ccc(OCC(=O)N2C(=O)CC(=O)N(c3ccccc3)C2=S)cc1)N1C(=O)CC(=O)N(c2ccccc2)C1=S`, the GI50 is reported as inactive: 79.1 µM. With `Cc1ccc(-n2cnc3c(N)nc(N)nc32)cc1` the GI50 was inactive: > 100 µM. For `O=C1OC2C=CC1C1(CCOC1=O)C2` (stereo not given), the GI50 was inactive: > 100 µM. With `Cc1cccc2c1Oc1cc(Cl)ccc1C2NC(=O)CCN1CCOCC1` (stereo not given) the GI50 was inactive: > 100 µM. For `O=C1NC(=O)C2C(=O)NC(=O)C1C2Cc1ccco1` (stereo not given), the GI50 was inactive: > 100 µM. With `Cc1cc(C)n(C(C)(C(=O)Cc2ccccc2)n2nc(C)cc2C)n1` the GI50 was inactive: > 100 µM. With `OC(CC(CC(O)(C(F)(F)Cl)C(F)(F)Cl)=NNc1ccccc1)(C(F)(F)Cl)C(F)(F)Cl` the GI50 was inactive: 3.86 µM. For `CC1(C)CC2CC(CC(C)(C)C2=O)C1=O`, the GI50 was inactive: > 100 µM. `N#CC(/N=N/c1ccccc1C(=O)O)C(N)=O` (stereo not given) was tested, and the GI50 was inactive: > 100 µM. With `COc1ccc(/C=N/N=C(\N)NO)c(OC)c1C` the GI50 was inactive: 5.74 µM. `Cc1cn(CC(=S)NCCc2c[nH]c3ccccc23)c(=O)[nH]c1=O` was tested, and the GI50 was inactive: > 100 µM. For `CC(=O)Nc1ccc(Nc2nc(=O)[nH]c(=O)[nH]2)cc1`, the GI50 was inactive: > 100 µM. In the case of `CCOC(=O)/C=C/c1cccc(F)c1`, the GI50 is reported as inactive: > 100 µM. For `N#Cc1c(Cl)cc(C#N)n2c1nc1ccccc12`, the GI50 was inactive: 24.3 µM. In the case of `c1ccc(CNCCCCNCCCNCc2ccccc2)cc1`, the GI50 is reported as inactive: 21.7 µM. `CCOP(=O)(OCC)C(C)(CC)N/C(=N\C1=NC(C(F)(F)F)(C(F)(F)F)N=C(C(F)(F)F)O1)NC(NC(C)=O)(C(F)(F)F)C(F)(F)F` (stereo not given) was tested, and the GI50 was inactive: 42.4 µM. With `CCCC(=O)N1CCN(c2ccc3c(c2)OC(C)O3)CC1` (stereo not given) the GI50 was inactive: > 100 µM. In the case of `O=C1c2ccccc2C(=O)N1CC1(C(=O)O)NCCS1(=O)=O` (stereo not given), the GI50 is reported as inactive: > 100 µM. With `CC(=O)c1cccc(NC(=O)/C(=N\NC(=S)NN)C2C(=O)Nc3ccccc3[S+]2[O-])c1` (stereo not given) the GI50 was inactive: > 100 µM. For `C=C1C(=O)C([Si](C)(C)C)=C2C=C(C)C3(CC3)C12C` (stereo not given), the GI50 was inactive: > 100 µM. `Cc1ccc(S(=O)(=O)NNC(C[N+](=O)[O-])c2ccccc2)cc1` (stereo not given) was tested, and the GI50 was inactive: 29.2 µM. `O=C1CC(=O)NC(NN2C(=O)/C(=C/C(=O)c3ccco3)N=C2c2ccccc2)=N1` was tested, and the GI50 was inactive: > 100 µM. `C=CCN1/C(=C2\SC(=S)N(c3ccc(C)cc3)C2=O)Sc2c1ncn(C)c2=O` was tested, and the GI50 was inactive: > 100 µM. In the case of `Brc1cccc(C2(CCCC3(c4cccc(Br)n4)OCCO3)OCCO2)n1`, the GI50 is reported as inactive: > 100 µM. With `O=C1c2ccccc2N2OC3(N4CCCC4)CCCCC3C12c1ccccc1` (stereo not given) the GI50 was inactive: > 100 µM. With `COC1=C(OC)C(=O)C(Cc2c(Cl)nc3n2CCS3)=C(C)C1=O` the GI50 was inactive: 16.1 µM. For `C#C[C@]1(O)CC[C@H]2[C@@H]3CCC4=C/C(=N/CCOC(=O)c5cccc6c(=O)c7ccccc7[nH]c56)CC[C@@H]4[C@H]3CC[C@@]21C`, the GI50 was inactive: 50.4 µM. `O=c1ssc(Cl)c1Cl` was tested, and the GI50 was inactive: > 10 µM. With `CC(C)(C)COC1C2(OCCO2)C2CCC1(C)C2(C)C` (stereo not given) the GI50 was inactive: > 100 µM. In the case of `CCOc1ncn(-c2ccc(NC(=S)NC3OC(CO)C(O)C(O)C3O)cc2)n1` (stereo not given), the GI50 is reported as inactive: > 100 µM. In the case of `N#C/C(=C\c1cc2ccccc2c2ccccc12)c1ccccc1`, the GI50 is reported as inactive: 11.1 µM. In the case of `CCCCCCCCCCCC[S+](C)C`, the GI50 is reported as inactive: 12.6 µM. With `CCOC(=O)Cc1nc(/C(C#N)=C/c2ccco2)[nH]c(=O)c1C#N` the GI50 was inactive: 8.3 µM. `C1CSC[C@H]2COC[C@@H](CSCCS1)S2` was tested, and the GI50 was inactive: > 100 µM. In the case of `O=C(NC(=S)NC(=O)c1cc(O)c(O)c(O)c1)c1cc(O)c(O)c(O)c1`, the GI50 is reported as inactive: 21 µM. With `COc1cc2nc3n(c2cc1OC)C(O)c1c(Cl)nc(SC)nc1S3` (stereo not given) the GI50 was inactive: 13.5 µM. `[N-]=[N+]=NC(c1cn(C2CC(O)C(CO)O2)c(=O)[nH]c1=O)C(Cl)Br` (stereo not given) was tested, and the GI50 was inactive: > 100 µM. For `O=C(CSc1nc(O)nc2[nH]cnc12)Nc1ccccc1`, the GI50 was inactive: > 100 µM. `Cn1c2ccccc2c(=O)c2cccc(C(=O)NC(CCCNC(=N)N)C(=O)O)c21` (stereo not given) was tested, and the GI50 was inactive: > 100 µM. `O=c1[nH]n2c(=O)cc[nH]c2c1-c1nnns1` was tested, and the GI50 was inactive: > 100 µM. `N#Cc1c(NC(=S)NC(=O)c2ccccc2)nc2c(c1-c1ccccc1)CCC2` was tested, and the GI50 was inactive: > 100 µM. With `Fc1ccc(/N=C/C=C/Nc2ccc(F)cc2)cc1` the GI50 was inactive: 12.7 µM. In the case of `C=CCOc1ccc(C(=N/NC(=O)c2ccccc2)/N=N/c2ccc([N+](=O)[O-])cc2)cc1OC`, the GI50 is reported as inactive: 38.5 µM. With `N#Cc1c(N)nc2c(C#N)c(N)cc3c2c1Oc1ccccc1-3` the GI50 was inactive: > 100 µM. With `CC(=O)c1ccc2c(c1)CC1(C2)Cc2cc3c(cc2C1=O)CCC3` (stereo not given) the GI50 was inactive: 30.7 µM. `CN/C(=N\C#N)N(Cc1ccccc1)Cc1ccccc1` was tested, and the GI50 was inactive: > 100 µM. With `[N-]=[N+]=Nc1cc(=O)n(-c2ccccc2)c2ccccc12` the GI50 was inactive: > 100 µM. `O=C(/C=C\Nc1ccccc1O)C(F)(F)F` was tested, and the GI50 was inactive: > 100 µM. For `COc1ccc(C(C)Nc2cc(OC)c(OC)c(OC)c2)cc1` (stereo not given), the GI50 was inactive: 5.79 µM. For `O=C1OCC2C1C1c3ccccc3C(O)c3ccccc3C21` (stereo not given), the GI50 was inactive: > 100 µM. With `COc1ccc(C(=O)C2CC3(CCC2(O)c2ccc(OC)cc2)CC(=O)Nc2ccccc2C3=O)cc1` (stereo not given) the GI50 was inactive: > 100 µM. In the case of `O=C(/C=C1\Sc2ccccc2N=C1CC(=O)c1ccccc1)c1ccccc1`, the GI50 is reported as inactive: 14.2 µM. In the case of `NC(=O)c1cn(C2OC(CO)C(O)C2O)c2nc[n+]([O-])c(N)c12` (stereo not given), the GI50 is reported as active: 0.174 µM. `Cc1ccc(C)c(COCCOCn2cc(Br)c(N)nc2=O)c1` was tested, and the GI50 was inactive: > 100 µM. With `NCC(O)CSP(=O)(O)O` (stereo not given) the GI50 was inactive: > 100 µM. In the case of `N=C(N)NC(CC(=O)O)c1ccccc1` (stereo not given), the GI50 is reported as inactive: > 100 µM. For `CC1=C2[C@@H](c3ccccc3)C3C=CC2(c2ccccc23)N(C(=O)Nc2cccc3ccccc23)C1=O` (stereo not given in full), the GI50 was inactive: > 100 µM. `COc1nc2c(c(=O)n1C)N(C(C)=O)C1C(N2)OCC(OC(C)=O)C1OC(C)=O` (stereo not given) was tested, and the GI50 was inactive: > 10 µM. `C=C[C@]1(C)CC(O)C2C(=C)C(=O)OC2[C@H]1C(=C)C=O` (stereo not given in full) was tested, and the GI50 was inactive: 11.9 µM. In the case of `CC(=O)C1C(=O)C(=O)N(c2ccc([N+](=O)[O-])cc2)C1=O` (stereo not given), the GI50 is reported as inactive: > 100 µM. In the case of `Cc1cc(-c2nc3cc(O)ccc3s2)ccc1N`, the GI50 is reported as inactive: 29.1 µM. `c1cc(C[S+]2CCCC2)ccc1C[S+]1CCCC1` was tested, and the GI50 was inactive: > 100 µM. `CCc1nc(N)nc(N)c1-c1ccc(Cl)c(/N=N/N(C)C)c1` was tested, and the GI50 was inactive: 47.1 µM. For `NS(=O)(=O)c1ccc(/C=C/c2ccc(O)cc2)cc1`, the GI50 was inactive: 63.2 µM.

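Tested at 5 concentrations; 48 h exposure; 96-well plates; endpoints linearly interpolated, else capped at highest concentration. Abbreviation: GI50, concentration required for 50% inhibition of growth.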 Activity calls are given as the source filed them. Rule as the data show it: active = GI50 up to about 1.1 µM and inactive = higher.
